In PubChem BioAssay AID1508624 (National Center for Advancing Translational Sciences (NCATS), 2021) one finds activity change, positive = activation data, which are given here for 77 compounds.

Several values for one entry are separate records, joined by “and”; a condition that tells them apart may be missing. Equal values may be shown once. About 120 (0.25%) of roughly 48,000 compounds were called active. Not shown: some 4% with an inconclusive outcome. Calls follow the shape of the dose curve; as a rule, active = well fitted activation curve with a large enough effect; inconclusive = small, poorly fitted or top-dose-only effect, or another doubt; inactive = no such curve, though single readings can be large or run the other way. The list shows a part of the results.

This test can be described thus: Primary qHTS for Identification of Small Molecule Activators of Huntingtin-Antisense Promoter Activity. Also: nearly all actives have a fitted effect of over 55% in size. The following applies: HEK293 HTT-AS promoter firefly luciferase reporter, 24 h; at 57.5 µM (top of the series) unless noted. In a few lines: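 HEK293 cells carrying firefly luciferase reporters were seeded at 2,500 per well in Opti-MEM and cultured for 24 h. They were then treated with compounds at up to 57.5 uM final for 24 h at 37 degrees C before Dual-Glo luminescence readout.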
Turning to `CCOC(=O)c1cncn1[C@H](C)c1ccccc1`, the activity change, positive = activation was inactive: -11.3%.
Consider `CNC(=O)Oc1cccc2ccccc12`, for which the activity change, positive = activation is inactive: -3.77%.
The value for `COc1ccc(NC(=O)c2cccn(Cc3ccc(Cl)cc3)c2=O)c(OC)c1` was inactive: -49.7%.
Consider `C[C@]12Cc3cn[nH]c3C[C@@H]1CC[C@@H]1[C@@H]2CC[C@@]2(C)[C@H]1CC[C@]2(C)O`, for which the activity change, positive = activation was inactive: -5.86%.
Take `CC1=C(C(=O)O)N2C(=O)[C@@H](N)[C@H]2SC1`: the activity change, positive = activation was inactive: -4.31% [at 25.1 µM].
As for `CC(O)(CS(=O)(=O)c1ccc(F)cc1)C(=O)Nc1ccc(C#N)c(C(F)(F)F)c1` (configuration not stated), the figure is inactive: -31.5%; as for `CCN1CCN(C(=O)Cc2ccc(Nc3ncc(F)c(Nc4ccc(C(=O)Nc5ccccc5Cl)cc4)n3)cc2)CC1`, inactive: -12.4%.
As for `COC1(CS(=O)c2ccccc2)CCN(CCc2c[nH]c3ccc(F)cc23)CC1` (configuration not stated), the figure is inactive: -14%; as for `O=C(COc1ccccc1[N+](=O)[O-])N1CCN(CCc2ccccn2)CC1`, inactive: -14.7% [at 57.5 µM, percent change from vehicle, -100% = no light].
Take `Cc1ccccc1-n1c(/C=C/c2ccccc2F)nc2ccccc2c1=O`: the activity change, positive = activation is inactive: -37.6%.
As for `O=C(Nc1ccccc1C(F)(F)F)c1cccn(Cc2ccccc2)c1=O`, the figure is inactive: -42.8% [at 57.5 µM, percent change from vehicle, -100% = no light].
In the case of `Cc1ncsc1CCCl`, the activity change, positive = activation was inactive: -0.211%.
As to `O=[N+]([O-])O[C@H]1CO[C@H]2[C@@H]1OC[C@H]2O[N+](=O)[O-]`, the activity change, positive = activation was inactive: -0.17%.
As for `Cc1ccc(-n2c(/C=C/c3cccc4ccccc34)nc3ccccc3c2=O)cc1`, the figure is inactive: -7.71% [at 57.5 µM, percent change from vehicle, -100% = no light]; as for `C=C1CC[C@@]2(O)[C@H]3Cc4ccc(O)c5c4[C@@]2(CCN3CC2CC2)[C@H]1O5`, inactive: -6.12%.
As for `C[C@]12Cc3nonc3C[C@@H]1CC[C@@H]1[C@@H]2CC[C@@]2(C)[C@H]1CC[C@]2(C)O`, the figure is inactive: -32.4%; as for `COC[C@H]1OC(=O)c2coc3c2[C@@]1(C)C1=C(C3=O)C2CCC(=O)[C@@]2(C)C[C@H]1OC(C)=O` (some centres not stated), inactive: -18.3%; as for `O=C(CCCN1CCC2(CC1)C(=O)NCN2c1ccccc1)c1ccc(F)cc1`, inactive: -15.1%.
For `Cc1cccc(Cn2cccc(C(=O)Nc3nc4ccccc4s3)c2=O)c1`, the activity change, positive = activation was inactive: -11.4% [at 57.5 µM, percent change from vehicle, -100% = no light].
Take `CCOC(=O)c1ccc(NC(=O)CSc2nc3c(cc2C#N)N2CCC3CC2)cc1`: the activity change, positive = activation was inactive: -19.7%.
As for `Cc1cccc(-n2c(CC3C(=O)Nc4ccc(C)cc43)nc3ccccc3c2=O)c1` (configuration not stated), the activity change, positive = activation was inactive: -5.84%.
In the case of `NCC1(CC(=O)O)CCCCC1`, the activity change, positive = activation is inactive: -6.59% and inactive: 1.76%.
The value for `COc1cccc(-n2c(/C=C/c3cccc(C)c3)nc3ccccc3c2=O)c1` was inactive: -11% [at 57.5 µM, percent change from vehicle, -100% = no light]; that for `CCC(=O)C(CC(C)N(C)C)(c1ccccc1)c1ccccc1` (configuration not stated) was inactive: -12.6% [at 116 µM]; that for `CC(=O)C1CCOC1=O` (configuration not stated) was inactive: 2.19%.
On to `CCn1c(CN2CCN(C)CC2)nc2ccccc21`, for which the activity change, positive = activation was inactive: 0%.
As for `C=C[C@@H]1CN2CCC1C[C@@H]2[C@@H](O)c1ccnc2ccccc12` (some centres not stated), the figure is inactive: -63.3%; as for `Cc1ccc(C)c(CN2C(=O)c3ccccc3Sc3ccc(C(=O)N4CCC5(CC4)OCCO5)cc32)c1`, inactive: -47%; as for `O=C(c1ccc2c(c1)N(Cc1c(F)cccc1Cl)C(=O)c1ccccc1S2)N1CCC2(CC1)OCCO2`, inactive: -25.7%.
Take `O=C(Nc1ccc(OC(F)(F)F)cc1)c1cccn(Cc2ccccc2Cl)c1=O`: the activity change, positive = activation is inactive: -27.3%.
The value for `O=c1[nH]oc2c1CCNC2` was inactive: 0.631%; that for `Cc1cccc(CN2C(=O)CN=C(c3ccccc3Cl)c3cc(Cl)ccc32)c1` was inactive: -35.1%; that for `CCOC(C(=O)OCCN(C)C)(c1ccccc1)c1ccccc1` was inactive: -12.1%.
As for `CN1[C@@H]2CC[C@H]1CC(OC(=O)c1cc(Cl)cc(Cl)c1)C2` (some centres not stated), the figure is inactive: -16%; as for `Cc1ccc(-n2c(/C=C/c3ccccc3)nc3ccccc3c2=O)cc1C`, inactive: 8.78%.
On to `CCOC(=O)Nc1ccc(NCc2ccc(F)cc2)cc1N`, for which the activity change, positive = activation is inactive: -28.6%.
Take `C[C@@H]1C[C@@H]([C@H](O)CC2CC(=O)NC(=O)C2)C(=O)[C@@H](C)C1`: the activity change, positive = activation was inactive: -31.9% and inactive: -35.3%.
The value for `C[C@H](N)C(=O)c1ccccc1` was inactive: -5.08% [at 116 µM]; that for `O=C(O)c1nn(Cc2ccc(Cl)cc2Cl)c2ccccc12` was inactive: -22.2% and inactive: -7.1%.
Consider `Nc1ccccc1C(=O)OCC(O)CO` (configuration not stated), for which the activity change, positive = activation is inactive: 1.99%.
The value for `COc1cc2cc(c1Cl)N(C)C(=O)C[C@H](OC(=O)C(C)C)[C@]1(C)O[C@H]1[C@H](C)[C@@H]1C[C@@](O)(NC(=O)O1)[C@H](OC)C=CC=C(C)C2` was inactive: -34.6%; that for `O=C(O)C(Cl)Cl` was inactive: 1.15%; that for `CCOc1ccc(CN2C(=O)c3ccccc3Sc3ccc(C(=O)N4CCC5(CC4)OCCO5)cc32)cc1` was inactive: -17%.
As for `Cc1c(C(c2ccc(O)cc2)c2c(O)c3ccccc3oc2=O)c(=O)n(-c2ccccc2)n1C` (configuration not stated), the figure is inactive: -12.3%.
As to `NC(=O)c1ccc(NC(=O)c2cccn(Cc3ccccc3)c2=O)cc1`, the activity change, positive = activation is inactive: 0.196% [at 57.5 µM, percent change from vehicle, -100% = no light].
As to `CCC1(CCC(C)C)C(=O)NC(=O)NC1=O`, the activity change, positive = activation is inactive: -9.21% [at 116 µM].
In the case of `Cc1ccc(-n2c(/C=C/c3cccc(C(F)(F)F)c3)nc3ccccc3c2=O)cc1`, the activity change, positive = activation is inactive: -9.05% [at 57.5 µM, percent change from vehicle, -100% = no light].
As for `O=c1c2ccccc2nc(/C=C\c2cccc(Br)c2)n1-c1ccc(O)cc1`, the figure is inactive: -33%; as for `Cc1cccc(-n2c(/C=C/c3cccc4ccccc34)nc3ccccc3c2=O)c1`, inactive: -21%; as for `CCSc1nnc(NC(=O)c2cccn(Cc3ccc(Cl)cc3)c2=O)s1`, inactive: -8.47%.
The value for `CCC1(C2=NCCN2)Cc2ccccc2O1` (configuration not stated) was inactive: -7.93%; that for `CC[C@@H](CO)NC(=O)[C@@H]1C=C2c3cccc4[nH]cc(c34)C[C@H]2N(C)C1` was inactive: -7.19%.
With `Cc1cccc(OC(C)C(=O)NCC2(N(C)C)CCCCC2)c1C` (configuration not stated), the activity change, positive = activation is inactive: 1.53%.
As for `Cc1nnc(NC(=O)c2cccn(Cc3ccccc3)c2=O)s1`, the figure is inactive: 8.17% [at 57.5 µM, percent change from vehicle, -100% = no light]; as for `Cc1nnc2n1-c1sc(CCC(=O)N3CCOCC3)cc1C(c1ccccc1Cl)=NC2`, inactive: -6.26%.
As for `CCCc1nc(SC)ncc1C(=O)Nc1ccc(Cl)cc1C(=O)c1ccccc1`, the figure is inactive: -28.2%; as for `CC[N+]1(C)CCCC(OC(=O)C(O)(c2ccccc2)c2ccccc2)C1` (configuration not stated), inactive: -4.82%; as for `O=C(Nc1nc2ccccc2s1)c1cccn(Cc2ccccc2)c1=O`, inactive: -41.3%.
Turning to `CC(Cc1ccccc1)N(C)Cc1ccco1` (configuration not stated), the activity change, positive = activation was inactive: -2.07%.
Take `CN(C)CCc1c[nH]c2ccccc12`: the activity change, positive = activation is inactive: -4.28% [at 222 µM].
As for `COc1ccc(CC2NCCc3cc(OC)c(OC)cc32)cc1OC` (configuration not stated), the figure is inactive: -33.5%.
As for `CCCCCC[C@H]1C(=O)O[C@H](C)[C@H](NC(=O)c2cccc(NC=O)c2O)C(=O)O[C@@H](C)[C@@H]1OC(=O)CC(C)C`, the activity change, positive = activation was inactive: -94.1%.
For the compound `O=C(COc1ccccc1Cl)N1CCN(CCc2ccccn2)CC1`, the activity change, positive = activation is inactive: 9.77% [at 11.5 µM].
As for `c1ccc2c(c1)OCC(C1=NCCN1)O2` (configuration not stated), the figure is inactive: -4.9%; as for `Nc1ccc([N+](=O)[O-])cc1`, inactive: -10% [at 116 µM].
For `CN1C(=O)CN=C(c2ccccc2)c2cc(Cl)ccc21`, the activity change, positive = activation is inactive: -18.1%.
`CC(Cc1ccccc1)NCc1ccccc1Cl` (configuration not stated): the activity change, positive = activation was inactive: 0.253%.
The value for `C[C@]12CC[C@H](O)CC1=CC[C@@H]1[C@@H]2CC[C@]2(C)C(=O)CC[C@@H]12` was inactive: -14.5%; that for `COc1ccc(NC(=O)CN2C(=O)CN=C(c3ccccc3)c3ccccc32)c(OC)c1` was inactive: -21.9% [at 57.5 µM, percent change from vehicle, -100% = no light]; that for `COc1ccccc1CN1CCN(C(=O)COc2cccc(C)c2)CC1` was inactive: -2.5%.
As for `c1ccc(CN2CCNCC2)cc1`, the figure is inactive: -4.6% [at 222 µM]; as for `Cc1ccccc1-n1nc(C)c2c1NC(=O)CSC2c1ccccc1C(F)(F)F` (configuration not stated), inactive: -31.5%; as for `COP(=S)(OC)Oc1ccc(S(=O)(=O)N(C)C)cc1`, inactive: -15.8%.
As for `CNC(=O)c1ccc(N2C(=S)N(c3ccc(C#N)c(C(F)(F)F)c3)C(=O)C23CCC3)cc1F`, the activity change, positive = activation was inactive: -32.7%.
Take `CCOc1ccc(CN(CCc2ccc3c(c2)OCO3)Cc2ccc(CC)cc2)cc1`: the activity change, positive = activation was inactive: -10.3% [at 57.5 µM, percent change from vehicle, -100% = no light].
The value for `C[CH2][Hg][S]c1ccccc1C(=O)O` was inactive: -95.5%; that for `C=CCON=C(C[C@H]1O[C@@H]2O[C@]3(C)CC[C@@H]4[C@H](C)CC[C@@H]([C@H]1C)[C@@]24OO3)[C@H]1O[C@@H]2O[C@]3(C)CC[C@H]4[C@H](C)CC[C@@H]([C@@H]1C)[C@@]24OO3` was inactive: -24.5%.
